Measured values published in the supplement of paper PMC11417369.
± gives the standard deviation of the averaged measurements. The list shows a part of the results.

tested on: PfAP2-G AP2 domain (GST-tagged); assay: gcPBM binding intensity (ln(normalized median fluorescence intensity)); higher = stronger DNA binding
Method in brief: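 Binding intensity is defined as the maximum Masliner-normalised natural-log median intensity across replicate spots for either probe orientation. It was measured on an Agilent 4 × 180k array of primer-extended double-stranded 36-bp intergenic genomic probes and negative controls, to which GST-tagged P. falciparum DNA-binding domains made in E. coli were applied for 1 h in 1× PBS with 1% milk, 0.2 mg/ml BSA, 0.5% salmon testes DNA and 0.03% Triton X-100. Detection was by Alexa488 anti-GST antibody and scanning at 488 nm.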

Sequence	gcPBM binding intensity (ln)
ATAACACAAAATTGTTGTACACGTGTTAATAAGTGA [XGTACX_site4452]	11.6 ± 0.73
AAATTTGGCAGACACACACACACACGCACACGCACA [CACACA_site6423]	10.5 ± 0.27
TGAATAAATATATATACACACATATCTGTATTTATT [CACACA_site4991]	9.59 ± 0.21
TATATATATACCAACACACATACATATATATATATA [CACACA_site1795]	10 ± 0.33
CCCTCCCCATGTTTAGTGCAAAAATATTTGAAATTG [GTGCAC_site9873]	11.2 ± 0.58
TATGAAATTAGAATTACACACAGGAAAATAAAATGC [CACACA_site6822]	10.15 ± 0.035
TGAACTCATAGGAAAACACACATATGGGTAATATAT [CACACA_site187]	10.1 ± 0.014
ATTTTCCTTTTACCACGTACACATAAAAACGTTATA [XGTACX_site3595]	11.5 ± 0.9
TTTGCGTAGAAATGTGTGCACTGATATTTATAATAA [GTGCAC_site9526]	10.4 ± 0.36
AAAAAAAATCAAATGGGTACTTATTCTTAATAATAT [XGTACX_site3792]	11.1 ± 0.67
GGAACTTATTTTTATACACACATATGTGCATATTAT [CACACA_site629]	10.14 ± 0.035
GTAAAAAAATTAAAAATTAACAAGGAATTAAGTATA [CACACA_negctrl_site1688]	9.9 ± 0.071
TATACATATATATACACACACACATATATATATATA [CACACA_site1299]	10.1 ± 0.19
TATATATATTTAAAGGTGCAGATGCCAGTGTATATT	10.2 ± 0.2
AATGAACTCACGAGCACACACACACCGATATATATA [CACACA_site4710]	10.4 ± 0.2
ATAAATATATTTAAATGTACATAATATATATATATA [XGTACX_site5137]	11.1 ± 0.62
ACATATTCATATGGAAGTACGATAATGTAGTCATAT [XGTACX_site7080]	10.9 ± 0.52
ATATATACATACAAATTAATTACGAGGAATATATTA [XGTACX_negctrl_site417]	9.86 ± 0.014
TTAAAAAAATAATTAACACACACATGTATATCTATA [CACACA_site9026]	9.89 ± 0.099
TTGTAATAAATAAAAGTGCAGATATGGTTCCACTAA [GTGCAC_site9942]	10.4 ± 0.34
ATCATAAATATAGCAACACACGGATTACATAAAATA [CACACA_site2796]	10.1 ± 0.22
TAAAAAAAAATAAATGGTACACAATTAAATGTTTAT [XGTACX_site5255]	11.2 ± 0.58
AGTGACACCAAAGGGGTGCAATGAAATTAAAAATAT	10.2 ± 0.21
TTTATTCATTTCTAAAAATATTAAAATAGAATGAAT [CACACA_negctrl_site325]	9.59 ± 0.11
AAACAAAAAATATATACACACTAAACATAAAAAAAA [CACACA_site4185]	9.96 ± 0.16
